{"source": "paper PMC4336329", "about": "(PLoS ONE, 2015)", "note": "Among all 310,000 compounds or so, about 14,000 (4.5%) showed an effect of 50% or more. The effect is printed as a negative number. This is one part of the list.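 Note: peak tail current of the secondary pulse compared with the same well before compound.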", "data": [{"molecular_target": "human ether-à-go-go-related gene (hERG) potassium channel (human, UniProt Q12809)", "sequence (Q12809 whole entry, looked up)": "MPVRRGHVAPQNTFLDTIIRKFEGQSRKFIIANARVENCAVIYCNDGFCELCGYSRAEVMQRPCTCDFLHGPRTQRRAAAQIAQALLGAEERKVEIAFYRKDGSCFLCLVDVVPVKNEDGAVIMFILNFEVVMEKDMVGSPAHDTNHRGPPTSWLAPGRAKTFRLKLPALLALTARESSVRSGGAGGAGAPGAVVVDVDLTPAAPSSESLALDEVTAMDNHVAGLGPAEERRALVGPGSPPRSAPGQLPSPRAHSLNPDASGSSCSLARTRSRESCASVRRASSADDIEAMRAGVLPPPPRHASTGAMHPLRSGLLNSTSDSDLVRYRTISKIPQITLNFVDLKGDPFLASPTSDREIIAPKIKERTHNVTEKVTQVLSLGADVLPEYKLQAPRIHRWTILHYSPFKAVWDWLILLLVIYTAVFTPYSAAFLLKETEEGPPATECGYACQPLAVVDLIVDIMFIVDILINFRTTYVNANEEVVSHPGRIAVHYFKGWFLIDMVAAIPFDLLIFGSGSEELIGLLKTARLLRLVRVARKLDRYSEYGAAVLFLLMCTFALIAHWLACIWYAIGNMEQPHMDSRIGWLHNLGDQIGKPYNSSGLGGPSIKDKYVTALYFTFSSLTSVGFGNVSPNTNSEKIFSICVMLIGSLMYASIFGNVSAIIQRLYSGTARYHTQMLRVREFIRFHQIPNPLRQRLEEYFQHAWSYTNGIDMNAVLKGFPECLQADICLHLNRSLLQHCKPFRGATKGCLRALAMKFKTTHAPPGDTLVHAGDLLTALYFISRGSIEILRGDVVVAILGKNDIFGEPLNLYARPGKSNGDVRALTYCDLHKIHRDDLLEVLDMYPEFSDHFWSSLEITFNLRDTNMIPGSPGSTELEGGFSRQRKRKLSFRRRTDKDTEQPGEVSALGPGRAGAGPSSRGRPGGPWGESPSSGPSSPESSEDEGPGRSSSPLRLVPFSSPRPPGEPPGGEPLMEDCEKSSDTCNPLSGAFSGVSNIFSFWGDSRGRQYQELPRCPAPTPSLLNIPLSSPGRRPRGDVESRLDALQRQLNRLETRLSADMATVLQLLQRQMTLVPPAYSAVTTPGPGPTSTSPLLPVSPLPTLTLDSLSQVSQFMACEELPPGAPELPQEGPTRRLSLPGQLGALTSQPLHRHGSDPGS", "assay": "primary screen, population patch clamp on CHO cells stably expressing hERG", "units": {"hERG current change (%, negative = inhibition) at 10uM": "%"}, "values": [{"smiles": "COc1cc(/C=C2\\SC(=S)N(NC(=O)c3ccccc3O)C2=O)ccc1O", "hERG current change (%, negative = inhibition) at 10uM": 10.8}, {"smiles": "c1cncc(CNc2nc(-c3cccnc3)nc3ccccc23)c1", "hERG current change (%, negative = inhibition) at 10uM": -25.3}, {"smiles": "COCCn1c(SCc2ccc(C(=O)OC)o2)nc2ccccc2c1=O", "hERG current change (%, negative = inhibition) at 10uM": -18.7}, {"smiles": "CCCC(=O)Nc1cc(C(=O)O)ccc1S(=O)(=O)c1ccc(Cl)cc1", "hERG current change (%, negative = inhibition) at 10uM": 10.7}, {"smiles": "CCC(C)(C#CCN1CCCCC1)OC(C)=O", "note": "(centres unmarked)", "hERG current change (%, negative = inhibition) at 10uM": 10.7}, {"smiles": "Cn1ccnc1C(=O)c1cc(=O)c2ccccc2o1", "hERG current change (%, negative = inhibition) at 10uM": 8.14}, {"smiles": "CCCC(C)c1nnc(NC(=O)C2CCCO2)s1", "note": "(centres unmarked)", "hERG current change (%, negative = inhibition) at 10uM": 3.06}, {"smiles": "Cc1nc2ccc(S(=O)(=O)Nc3cccc(-c4nc5cccnc5s4)c3)cc2s1", "hERG current change (%, negative = inhibition) at 10uM": 14.8}, {"smiles": "Cc1ccc(-n2ncc(Cl)c2C(=O)NCc2ccccc2)cc1", "hERG current change (%, negative = inhibition) at 10uM": 12.1}, {"smiles": "Cc1ccc(CNC(=O)CN2C(=O)NC(C)(c3ccc(Cl)cc3)C2=O)cc1", "note": "(centres unmarked)", "hERG current change (%, negative = inhibition) at 10uM": -6.93}, {"smiles": "O=C(COC(=O)c1ccc(Cl)c(S(=O)(=O)N2CCCC2)c1)NC1CCCCC1", "hERG current change (%, negative = inhibition) at 10uM": 0.159}, {"smiles": "CN(Cc1ccc(F)cc1)C(=O)COc1ccccc1-c1ccccc1", "hERG current change (%, negative = inhibition) at 10uM": -1.36}, {"smiles": "O=C(NNC(=O)c1cc2cc(OC(F)(F)F)ccc2[nH]1)c1cccc(C(F)(F)F)c1", "hERG current change (%, negative = inhibition) at 10uM": 9}, {"smiles": "COc1cccc(C(=O)Nc2nnc(Cc3ccc(OC)c(OC)c3)s2)c1", "hERG current change (%, negative = inhibition) at 10uM": 22.3}, {"smiles": "COc1cc(C2Nc3ccc4ncccc4c3C3=C2C(=O)CC(C)(C)C3)cc(OC)c1O", "note": "(centres unmarked)", "hERG current change (%, negative = inhibition) at 10uM": 3.48}, {"smiles": "Cc1cc(N2CCN(c3ccccc3)CC2)nc2ccccc12", "hERG current change (%, negative = inhibition) at 10uM": 3.04}, {"smiles": "Cc1sc2ncnc(NCc3cccnc3)c2c1C", "hERG current change (%, negative = inhibition) at 10uM": -55}, {"smiles": "CC1(C)CC(=O)C2=C(C1)OC(N)=C(C#N)C2c1cccc(OC(=O)c2ccco2)c1", "note": "(centres unmarked)", "hERG current change (%, negative = inhibition) at 10uM": -4.09}, {"smiles": "O=c1[nH]c(CSc2ncccn2)nc2c1cnn2-c1ccccc1", "hERG current change (%, negative = inhibition) at 10uM": -1.06}, {"smiles": "C/C(N)=C(/C#N)C(=O)CSc1nnnn1-c1ccc(C)cc1C", "hERG current change (%, negative = inhibition) at 10uM": -13.9}, {"smiles": "COc1cccc(NC(=O)NCCc2ccc(Cl)cc2)c1", "hERG current change (%, negative = inhibition) at 10uM": 9.47}, {"smiles": "Cc1ccnc(NC(=O)CCCc2ccccc2)c1", "hERG current change (%, negative = inhibition) at 10uM": 13}, {"smiles": "COc1ccc2c(c1OC)C(=O)OC2C1c2c(cc3c(c2OC)OCO3)CCN1C", "note": "(centres unmarked)", "hERG current change (%, negative = inhibition) at 10uM": -1.42}, {"smiles": "O=C(Nc1cccc(C(F)(F)F)c1)c1cc(-c2ccc(F)cc2)on1", "hERG current change (%, negative = inhibition) at 10uM": -2.5}, {"smiles": "Cc1ccc2c(c1)NC(=O)C(CC(=O)NCCCN1CCN(c3cc(C)ccc3C)CC1)O2", "note": "(centres unmarked)", "hERG current change (%, negative = inhibition) at 10uM": -61.4}, {"smiles": "CCCn1nc(Oc2nc(NCC)nc(NC(C)C)n2)ccc1=O", "hERG current change (%, negative = inhibition) at 10uM": 1.01}, {"smiles": "CN(C)c1ccc(CNCCC2(O)CCOC(C)(C)C2)cc1", "note": "(centres unmarked)", "hERG current change (%, negative = inhibition) at 10uM": -46.5}, {"smiles": "Cc1ccc(CNC(=O)Cn2nnc(C(=O)Nc3ccc(Br)cc3)c2N)cc1", "hERG current change (%, negative = inhibition) at 10uM": 15.8}, {"smiles": "O=C(NS(=O)(=O)Nc1ccccn1)c1c[nH]c2ccccc12", "hERG current change (%, negative = inhibition) at 10uM": 15.4}, {"smiles": "CCC(=O)N(Cc1cc2cc(OC)ccc2[nH]c1=O)c1ccc(C)cc1", "hERG current change (%, negative = inhibition) at 10uM": 0.841}, {"smiles": "COc1cc(NC(=O)CSc2nc(C)cc(C)n2)cc(OC)c1OC", "hERG current change (%, negative = inhibition) at 10uM": 0.515}, {"smiles": "CCOC(=O)c1c(N)sc2c1CCSC2", "hERG current change (%, negative = inhibition) at 10uM": 0.947}, {"smiles": "COc1cc(-c2nnc(-c3ccc(N4CCOCC4)cc3)o2)cc(OC)c1OC", "hERG current change (%, negative = inhibition) at 10uM": -34}, {"smiles": "COc1ccc(CC(=O)NNC(=O)c2ccc(SCc3cc(F)ccc3F)c([N+](=O)[O-])c2)cc1", "hERG current change (%, negative = inhibition) at 10uM": -14.2}, {"smiles": "CCOC(=O)c1nc(N)c(=O)n(-c2ccccc2)n1", "hERG current change (%, negative = inhibition) at 10uM": 0.155}, {"smiles": "O=C(O)C1C2C=CC(C2)C1C(=O)NCc1ccccc1F", "note": "(centres unmarked)", "hERG current change (%, negative = inhibition) at 10uM": 11.8}, {"smiles": "Cc1cc(NC(=O)CN2C(=O)NC(CCc3ccccc3)C2=O)no1", "note": "(centres unmarked)", "hERG current change (%, negative = inhibition) at 10uM": 9.36}, {"smiles": "O=C(CN1CCCCC1)Nc1ccccc1", "hERG current change (%, negative = inhibition) at 10uM": -1.04}, {"smiles": "COc1ccc(C(=O)CNc2ccccc2Br)cc1", "hERG current change (%, negative = inhibition) at 10uM": 18.8}, {"smiles": "Cc1cc(NC(=O)C(C)Sc2nnc(NCc3ccco3)s2)no1", "note": "(centres unmarked)", "hERG current change (%, negative = inhibition) at 10uM": -6.08}, {"smiles": "Cc1nn(-c2ccccc2)c(Cl)c1C(=O)NCC1CCCO1", "note": "(centres unmarked)", "hERG current change (%, negative = inhibition) at 10uM": 1.75}, {"smiles": "C/C(=N/NC(=O)c1nnn(-c2nonc2N)c1COc1ccccc1)c1ccc(O)cc1", "hERG current change (%, negative = inhibition) at 10uM": 19.4}, {"smiles": "C=CCNC(=S)NCc1ccc(CNC(=S)NCC=C)cc1", "hERG current change (%, negative = inhibition) at 10uM": 19.7}, {"smiles": "CCN1CCN(C(=O)C(=O)c2c(C)[nH]c3ccccc23)CC1", "hERG current change (%, negative = inhibition) at 10uM": -5.06}]}]}
